# Several values for one entry are separate records, joined by “and”; a condition that tells them apart may be missing. Identical values can stand only once. Inconclusive results, whose numbers are uncertain, are shown with a selection of clear calls. For some assays here: Potencies beside an inconclusive call are fits to weak or partial responses and may not hold up. A structure can be active in one record and inactive in another. Activity calls are given as the source filed them. Calls follow the shape of the dose curve; as a rule, active = well fitted curve in the direction sought with a large enough effect; inconclusive = small, poorly fitted or top-dose-only effect, or another doubt; inactive = no such curve, though single readings can be large; an effect the other way counts as inactive or inconclusive.
# Tests used:
# [1] = Viability qHTS for spleen associated tyrosine kinase inhibitor (SYKi) naive MV4-11 cells (AID 1963823); conditions: MV4-11 AML viability, CellTiter-Glo luminescence, 72 h; viability (% of control): at 45 µM (top of the series); also: potency is read from the fitted curve at half-maximal effect; nearly all actives have a fitted effect of over 40% in size
# Outline: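 Cells: MV4-11, SYK inhibitor naive, 500 per well. Treatment: library compounds, 72 hr, 37 C, 5% CO2. Read-out: CellTiter-Glo luminescence after 10 min RT.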
# [2] = Viability qHTS for spleen associated tyrosine kinase inhibitor (SYKi) drug resistant MV4-11 cells (AID 1963824); conditions: SYKi-resistant MV4-11 viability, CellTiter-Glo, 72 h; series mostly up to 45 µM; also: nearly all actives have a fitted effect of over 35% in size; also: potency is read from the fitted curve at half-maximal effect
# Outline: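 SYK inhibitor-resistant MV4-11 AML cells, 500 per well, added to predispensed compounds and incubated 72 hr at 37 C, 5% CO2. Viability measured by CellTiter-Glo luminescence after 10 min at room temperature.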
# [3] = Quantitative highthroughput screen to assess conditional lethalithy of P12 Ichikawa cells grown in RPMI1640 with untreated serum (RPMI+s) (AID 1963881); conditions: ATP luminescence, 48 h; Potency: viability; series mostly up to 45.8 µM;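 also: 100% = DMSO wells and 0% = empty wells without cells; nearly all actives have a fitted effect of over 35% in size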
# Outline: (§1)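 Each medium arm—HPLM with 10% dialyzed FBS, or RPMI1640 with 5 mM glucose and 10% untreated or dialyzed FBS—was screened against an 11-point, 3-fold compound titration for 48 h at 37 °C, with CellTiter-Glo luminescence as endpoint.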
# [4] = Quantitative highthroughput screen to assess conditional lethalithy of SEM cells grown in RPMI1640 with unreated serum (RPMI+s) (AID 1963883); conditions: SEM B-ALL cells, CellTiter-Glo viability, 48 h; viability: at 45.8 µM (top of the series); also: nearly all actives have a fitted effect of over 35% in size; also: potency is read from the fitted curve at half-maximal effect;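 as to Viability: 100% = DMSO wells and 0% = empty wells without cells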
# Outline: as §1
# [5] = Cellular viability qHTS for adrenocortical cancer (ACC) cell line SW-13 (AID 1963989); conditions: SW-13 ACC cells viability, CellTiter-Glo, 48 h; activity (max response): stronger effect = lower value; also: nearly all actives have a fitted effect of over 65% in size; also: potency is read from the fitted curve at half-maximal effect;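 as to activity (max response): cells grown in serum-free medium with ITS supplement; % is scaled to controls: 0 for no effect and ±100 for the full control effect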
# Outline: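 Luminescent ATP read-out (CellTiter-Glo, 20 min at room temperature) measured metabolically competent SW-13 cells after 48 h compound treatment. Final concentrations spanned up to 46 uM; bortezomib served as positive control.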
# [6] = Quantitative highthroughput screen to assess conditional lethalithy of P12 Ichikawa cells grown in RPMI1640 with dialyzed fetal bovine serum (RPMI+ds) (AID 1963880); conditions: ATP luminescence, 48 h; Potency: P12-Ichikawa viability; series mostly up to 45.8 µM;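 also: 100% = DMSO wells and 0% = empty wells on each plate; nearly all actives have a fitted effect of over 35% in size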
# Outline: as §1
# [7] = Quantitative highthroughput screen to assess conditional lethalithy of SEM cells grown in Human Plasma-Like Medium with dialyzed fetal bovine serum (HPLM+ds) (AID 1963882); conditions: SEM B-ALL cells in HPLM+ds, CellTiter-Glo viability, 48 h; series mostly up to 45.8 µM; also: nearly all actives have a fitted effect of over 35% in size; also: potency is read from the fitted curve at half-maximal effect
# Outline: as §1
# [8] = Quantitative highthroughput screen to assess conditional lethalithy of SEM cells grown in RPMI1640 with dialyzed fetal bovine serum (RPMI+ds) (AID 1963884); conditions: SEM B-ALL cells, RPMI+dialyzed FBS, CellTiter-Glo viability, 48 h; viability: at 45.8 µM (top of the series)
# Outline: as §1
# [9] = Cellular viability qHTS for adrenocortical cancer (ACC) cell line NCI-H295R (AID 1963990); conditions: CellTiter-Glo ATP luminescence, 48 h; activity change, negative = viability loss: at 46.1 µM (top of the series);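 also: 0% = DMSO only wells and -100% = full killing with cytotoxic reference compound; nearly all actives have a fitted effect of over 60% in size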
# Outline: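 IC50 and maximal efficacy derive from four-parameter logistic modelling of titration curves, with reads scaled between DMSO-only wells (0%) and doxorubicin hydrochloride (100% inhibition). Compounds spanned up to 46 uM over 48 h.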
# Tags tell the direction and shape of the fitted curve.
Compound,Potency [1],Potency [2],Potency [3],Potency [4],activity (max response) [5],Potency [6],Potency [7],Potency [8],Potency [5],Potency [9]
NCCc1ccc(O)c(O)c1,"inconclusive: 21.1 µM [cytotoxic, single point] and active: 20.9 µM",inactive,inactive,"inconclusive: 26.4 µM [cytotoxic, single point]",inactive: -9.5% and inactive: -1.11%,,,,,
Cc1cc(SCc2sc(-c3ccc(C(F)(F)F)cc3)nc2C)ccc1OCC(=O)O,"inconclusive: 20.6 µM [cytotoxic, single point] and inconclusive: 23.5 µM [cytotoxic, partial curve]","inconclusive: 23.1 µM [cytotoxic, single point] and inconclusive: 18.6 µM [cytotoxic, partial curve]",inactive,"inconclusive: 11.8 µM [cytotoxic, single point]",,inactive,"inconclusive: 10.5 µM [cytotoxic, single point]","inconclusive: 11.8 µM [cytotoxic, single point]","inconclusive: 25.1 µM [cytotoxic, single point]",inactive
COCCCOc1ccnc(CS(=O)c2nc3ccccc3[nH]2)c1C (stereo not given),"inconclusive: 14.8 µM [cytotoxic, partial curve] and inconclusive: 33.5 µM [cytotoxic, single point] and inconclusive: 16.4 µM [cytotoxic, partial curve]","inconclusive: 13.2 µM [cytotoxic, partial curve] and inconclusive: 33.5 µM [cytotoxic, single point] and inconclusive: 23.1 µM [cytotoxic, partial curve]",inactive,inactive,,inactive,inactive,,,
